# Measured values reported in the supplement of paper PMC8728848.
# This is one part of the list.
# B1: HPA (Helix pomatia), Q575S3 (protein)
# chain: MWAHLTGLLLICALSLSAAQRAQTGEIDCGSDSSWPKDPSDNPNRDNTREIVKHVTFSPQFCREPKVILSVTTLDAEHTKNLRYEARLKSVSPSGLSASCYSWHDGTIYRMKLSWLAVED
# What was measured:
# Experiment in all cases: glycan array binding signal (z-score within array); higher = stronger binding
# Conditions in all cases: glycan notation: IUPAC condensed, linker removed
# [1] = molecular target: Gal(b1-4)GlcNAc(b1-3)Gal(b1-4)GlcNAc(b1-3)Gal(b1-4)GlcNAc(b1-2)[Gal(b1-4)GlcNAc(b1-3)Gal(b1-4)GlcNAc(b1-3)Gal(b1-4)GlcNAc(b1-6)]Man(a1-6)[Gal(b1-4)GlcNAc(b1-3)Gal(b1-4)GlcNAc(b1-3)Gal(b1-4)GlcNAc(b1-2)Man(a1-3)]Man(b1-4)GlcNAc(b1-4)[Fuc(a1-6)]GlcNAc
# Outline: (§1)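 From the Consortium for Functional Glycomics database, 3228 arrays were curated, keeping only those whose protein sequence was available. Binding is given as a within-array Z-score averaged across arrays sharing a protein sequence and across linkers. Negative Z-scores can be read as non-binding.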
# [2] = molecular target: Gal(b1-4)GlcNAc(b1-3)Gal(b1-4)GlcNAc(b1-3)Gal(b1-4)GlcNAc(b1-3)Gal(b1-4)GlcNAc(b1-2)Man(a1-3)[Gal(b1-4)GlcNAc(b1-3)Gal(b1-4)GlcNAc(b1-3)Gal(b1-4)GlcNAc(b1-3)Gal(b1-4)GlcNAc(b1-2)Man(a1-6)]Man(b1-4)GlcNAc(b1-4)GlcNAc
# Outline: as §1
# [3] = molecular target: Gal(b1-4)GlcNAc(b1-3)Gal(b1-4)GlcNAc(b1-3)Gal(b1-4)GlcNAc(b1-3)Gal(b1-4)GlcNAc(b1-2)Man(a1-3)[Gal(b1-4)GlcNAc(b1-3)Gal(b1-4)GlcNAc(b1-3)Gal(b1-4)GlcNAc(b1-3)Gal(b1-4)GlcNAc(b1-2)Man(a1-6)]Man(b1-4)GlcNAc(b1-4)[Fuc(a1-6)]GlcNAc
# Outline: as §1
# [4] = molecular target: Gal(b1-4)GlcNAc(b1-3)Gal(b1-4)GlcNAc(b1-3)Gal(b1-4)GlcNAc(b1-3)Gal(b1-4)GlcNAc(b1-2)[Gal(b1-4)GlcNAc(b1-3)Gal(b1-4)GlcNAc(b1-3)Gal(b1-4)GlcNAc(b1-3)Gal(b1-4)GlcNAc(b1-6)]Man(a1-6)[Gal(b1-4)GlcNAc(b1-3)Gal(b1-4)GlcNAc(b1-3)Gal(b1-4)GlcNAc(b1-3)Gal(b1-4)GlcNAc(b1-2)Man(a1-3)]Man(b1-4)GlcNAc(b1-4)[Fuc(a1-6)]GlcNAc
# Outline: as §1
# [5] = molecular target: Gal(b1-4)GlcNAc(b1-3)Gal(b1-4)GlcNAc(b1-3)Gal(b1-4)GlcNAc(b1-3)Gal(b1-4)GlcNAc(b1-3)Gal(b1-4)GlcNAc(b1-2)Man(a1-3)[Gal(b1-4)GlcNAc(b1-3)Gal(b1-4)GlcNAc(b1-3)Gal(b1-4)GlcNAc(b1-3)Gal(b1-4)GlcNAc(b1-3)Gal(b1-4)GlcNAc(b1-2)Man(a1-6)]Man(b1-4)GlcNAc(b1-4)GlcNAc
# Outline: as §1
# [6] = molecular target: Gal(b1-4)GlcNAc(b1-3)Gal(b1-4)GlcNAc(b1-3)Gal(b1-4)GlcNAc(b1-3)Gal(b1-4)GlcNAc(b1-3)Gal(b1-4)GlcNAc(b1-2)Man(a1-3)[Gal(b1-4)GlcNAc(b1-3)Gal(b1-4)GlcNAc(b1-3)Gal(b1-4)GlcNAc(b1-3)Gal(b1-4)GlcNAc(b1-3)Gal(b1-4)GlcNAc(b1-2)Man(a1-6)]Man(b1-4)GlcNAc(b1-4)[Fuc(a1-6)]GlcNAc
# Outline: as §1
# [7] = molecular target: Gal(b1-4)GlcNAc(b1-3)Gal(b1-4)GlcNAc(b1-3)Gal(b1-4)GlcNAc(b1-3)Gal(b1-4)GlcNAc(b1-3)Gal(b1-4)GlcNAc(b1-2)[Gal(b1-4)GlcNAc(b1-3)Gal(b1-4)GlcNAc(b1-3)Gal(b1-4)GlcNAc(b1-3)Gal(b1-4)GlcNAc(b1-3)Gal(b1-4)GlcNAc(b1-6)]Man(a1-6)[Gal(b1-4)GlcNAc(b1-3)Gal(b1-4)GlcNAc(b1-3)Gal(b1-4)GlcNAc(b1-3)Gal(b1-4)GlcNAc(b1-3)Gal(b1-4)GlcNAc(b1-2)Man(a1-3)]Man(b1-4)GlcNAc(b1-4)[Fuc(a1-6)]GlcNAc
# Outline: as §1
# [8] = molecular target: Gal(b1-4)GlcNAc(b1-3)Gal(b1-4)GlcNAc(b1-3)Gal(b1-4)GlcNAc(b1-3)Gal(b1-4)GlcNAc(b1-3)Gal(b1-4)GlcNAc(b1-3)Gal(b1-4)GlcNAc(b1-2)Man(a1-3)[Gal(b1-4)GlcNAc(b1-3)Gal(b1-4)GlcNAc(b1-3)Gal(b1-4)GlcNAc(b1-3)Gal(b1-4)GlcNAc(b1-3)Gal(b1-4)GlcNAc(b1-3)Gal(b1-4)GlcNAc(b1-2)Man(a1-6)]Man(b1-4)GlcNAc(b1-4)GlcNAc
# Outline: as §1
# [9] = molecular target: Gal(b1-4)GlcNAc(b1-3)Gal(b1-4)GlcNAc(b1-3)GalNAc
# Outline: as §1
# [10] = molecular target: Gal(b1-4)GlcNAc(b1-3)Gal(b1-4)GlcNAc(b1-3)[Gal(b1-4)GlcNAc(b1-3)Gal(b1-4)GlcNAc(b1-6)]GalNAc
# Outline: as §1
# [11] = molecular target: Gal(b1-4)GlcNAc(b1-3)Gal(b1-4)GlcNAc(b1-6)[Gal(b1-3)]GalNAc
# Outline: as §1
# [12] = molecular target: Gal(b1-4)GlcNAc(b1-3)Gal(b1-4)[Fuc(a1-3)GlcNAc(b1-6)]Gal(b1-4)Glc
# Outline: as §1
# [13] = molecular target: Gal(b1-4)GlcNAc(b1-3)Gal(b1-4)[Fuc(a1-3)]GlcNAc(b1-3)Gal(b1-4)[Fuc(a1-3)]GlcNAc
# Outline: as §1
# [14] = molecular target: Gal(b1-4)GlcNAc(b1-3)GalNAc
# Outline: as §1
# [15] = molecular target: Gal(b1-4)GlcNAc(b1-3)[Fuc(a1-3)GlcNAc(b1-6)]Gal(b1-4)Glc
# Outline: as §1
# [16] = molecular target: Gal(b1-4)GlcNAc(b1-3)[Gal(b1-4)GlcNAc(b1-6)]Gal(b1-4)GlcNAc
# Outline: as §1
# [17] = molecular target: Gal(b1-4)GlcNAc(b1-3)[Gal(b1-4)GlcNAc(b1-6)]GalNAc
# Outline: as §1
# [18] = molecular target: Gal(b1-4)GlcNAc(b1-3)[GlcNAc(b1-6)]Gal(b1-4)GlcNAc
# Outline: as §1
# [19] = molecular target: Gal(b1-4)GlcNAc(b1-6)Gal(b1-4)GlcNAc
# Outline: as §1
# [20] = molecular target: Gal(b1-4)GlcNAc(b1-6)Gal(b1-4)GlcNAc(b1-6)GalNAc
# Outline: as §1
# [21] = molecular target: Gal(b1-4)GlcNAc(b1-6)GalNAc
# Outline: as §1
# [22] = molecular target: Gal(b1-4)GlcNAc(b1-6)[Gal(b1-3)]GalNAc
# Outline: as §1
# [23] = molecular target: Gal(b1-4)GlcNAc(b1-6)[Gal(b1-4)GlcNAc(b1-3)]GalNAc
# Outline: as §1
binder,measurement,setting,value
B1,glycan array binding signal (z-score),[1],-0.25
same,glycan array binding signal (z-score),[2],-0.242
same,glycan array binding signal (z-score),[3],-0.253
same,glycan array binding signal (z-score),[4],-0.228
same,glycan array binding signal (z-score),[5],-0.248
same,glycan array binding signal (z-score),[6],-0.253
same,glycan array binding signal (z-score),[7],-0.242
same,glycan array binding signal (z-score),[8],-0.231
same,glycan array binding signal (z-score),[9],-0.192
same,glycan array binding signal (z-score),[10],-0.189
same,glycan array binding signal (z-score),[11],-0.216
same,glycan array binding signal (z-score),[12],-0.224
same,glycan array binding signal (z-score),[13],-0.27
same,glycan array binding signal (z-score),[14],-0.26
same,glycan array binding signal (z-score),[15],-0.23
same,glycan array binding signal (z-score),[16],-0.273
same,glycan array binding signal (z-score),[17],-0.252
same,glycan array binding signal (z-score),[18],-0.269
same,glycan array binding signal (z-score),[19],-0.271
same,glycan array binding signal (z-score),[20],-0.312
same,glycan array binding signal (z-score),[21],-0.256
same,glycan array binding signal (z-score),[22],-0.266
same,glycan array binding signal (z-score),[23],-0.245
